Reference: publication PMC4336329 (PLoS ONE, 2015)
The campaign covered roughly 310,000 compounds. About 2,200 (0.71%) showed an effect of 50% or more. The effect is printed as a negative number. The list shows a part of the results.

Biological target: human ether-à-go-go-related gene (hERG) potassium channel (human, UniProt Q12809)
Experiment: primary screen, population patch clamp on CHO cells stably expressing hERG

Chain of human ether-à-go-go-related gene (hERG) potassium channel (Q12809 whole entry, looked up): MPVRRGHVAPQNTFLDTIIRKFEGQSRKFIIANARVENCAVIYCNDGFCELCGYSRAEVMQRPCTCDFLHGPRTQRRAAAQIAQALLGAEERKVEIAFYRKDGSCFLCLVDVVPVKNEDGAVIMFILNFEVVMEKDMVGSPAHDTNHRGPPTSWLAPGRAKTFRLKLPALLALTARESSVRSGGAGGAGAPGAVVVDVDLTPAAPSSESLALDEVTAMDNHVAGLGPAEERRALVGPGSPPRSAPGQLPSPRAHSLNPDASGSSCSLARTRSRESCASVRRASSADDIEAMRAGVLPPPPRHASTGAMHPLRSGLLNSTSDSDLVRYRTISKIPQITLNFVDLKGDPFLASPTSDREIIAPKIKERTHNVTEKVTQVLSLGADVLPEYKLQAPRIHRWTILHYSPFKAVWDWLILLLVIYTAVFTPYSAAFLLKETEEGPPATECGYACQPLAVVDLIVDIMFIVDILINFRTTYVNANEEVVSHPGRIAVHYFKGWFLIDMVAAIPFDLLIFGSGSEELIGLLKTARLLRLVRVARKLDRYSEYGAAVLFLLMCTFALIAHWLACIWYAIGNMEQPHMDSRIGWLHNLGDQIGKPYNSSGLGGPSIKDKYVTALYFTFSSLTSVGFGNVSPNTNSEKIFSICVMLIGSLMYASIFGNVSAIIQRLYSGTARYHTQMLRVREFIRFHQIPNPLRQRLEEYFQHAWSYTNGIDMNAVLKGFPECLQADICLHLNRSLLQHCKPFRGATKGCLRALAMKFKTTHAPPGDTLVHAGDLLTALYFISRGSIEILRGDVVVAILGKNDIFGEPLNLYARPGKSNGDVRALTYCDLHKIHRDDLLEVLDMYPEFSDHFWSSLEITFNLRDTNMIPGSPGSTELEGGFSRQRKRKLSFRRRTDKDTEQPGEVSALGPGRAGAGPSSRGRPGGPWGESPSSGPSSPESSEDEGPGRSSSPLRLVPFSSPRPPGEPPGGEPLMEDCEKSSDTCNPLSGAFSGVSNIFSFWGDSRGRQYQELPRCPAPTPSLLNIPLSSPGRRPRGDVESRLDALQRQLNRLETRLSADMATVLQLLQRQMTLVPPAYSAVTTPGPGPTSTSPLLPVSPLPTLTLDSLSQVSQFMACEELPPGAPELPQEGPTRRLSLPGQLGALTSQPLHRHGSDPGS

Structure (SMILES) | hERG current change (%, negative = inhibition) at 1uM
COc1ccc(Nc2nc3ccccc3nc2NS(=O)(=O)c2ccc(NC(C)=O)cc2)cc1 | 16.5%
CCCCNC(=O)Nc1ccccc1C(=O)NCc1ccco1 | 4.3%
COc1cccc(Nc2nc(=O)[nH]nc2C)c1 | -8.25%
COCCN=c1scc(-c2ccc3c(c2)NC(=O)CO3)n1/N=C(\C)c1ccc(O)cc1 | -1.04%
CCOc1ccc(-c2cnc3n2CCCCC3)cc1 | -10.8%
C=CCn1c(SC2CCOC2=O)nc2sc(CC)cc2c1=O (centres unmarked) | -29.7%
O=P(c1ccccc1)(c1ccccc1)c1nc(-c2ccccc2)oc1NCc1ccccc1 | 1.11%
COc1ccc(CNC(=O)c2sc(=S)n(-c3ccc(OC)cc3)c2N)cc1 | -1.98%
COC(=O)C1=C(N)OC2=C(C(=O)CC(C)(C)C2)C1c1cccs1 (centres unmarked) | 7.7%
CCCCOc1ccc(C(=O)Nc2cccc(-n3cnnn3)c2)cc1OC | 8.07%
Cc1[nH]n(-c2ccccc2)c(=O)c1C=Nc1ccc(S(N)(=O)=O)cc1 | -3.59%
CCOC(=O)c1cc(C)n(CCc2cnc[nH]2)c1C | 4.49%
COc1ccc(NC(=S)NC(NC(=O)c2cccc(Cl)c2)C(Cl)(Cl)Cl)c([N+](=O)[O-])c1 (centres unmarked) | 9.21%
COc1ccc(CNC(=O)CN2CCN(c3ccccc3O)CC2)cc1OC | 14.1%
COc1ccc(C(=O)c2sc(Nc3ccccc3)nc2C)cc1 | 3.32%
CC(=O)c1ccc(NC(=O)CSc2nnc(Cn3c(=O)sc4ccccc43)n2C)cc1 | 6.7%
COc1ccc(/C=C2\SC(=S)N(CCC(=O)NCCc3ccc(O)cc3)C2=O)cc1 | 14%
CCc1ccc(/C=C2\SC(=S)N(CCCC(=O)Nc3ccc(C(=O)O)cc3)C2=O)cc1 | 18.3%
COC(=O)CCCNC(=O)c1ccc2[nH]c(C)c(C)c2c1 | 9.74%
COc1ccc(CCNC(=O)c2c(C)noc2C)cc1 | 9.91%
Br.COc1ccc(C2=Nn3c(C)nnc3SC2)cc1 | 15.5%
Cn1c[n+](C)cc1C(O)c1ccccc1.[I-] (centres unmarked) | 13.8%

Structure (SMILES) | hERG current change (%, negative = inhibition) at 1uM
Cc1cc(C)c(NC(=O)c2sc3nc4c(cc3c2N)C(=O)CC(C)(C)C4)c(C)c1 | 13.4%
C#CCOCCOCCOCCNc1nc(N2CCN(C(=O)[C@H](C(C)C)n3cc(CCO)nn3)CC2)nc(N2CCN(C(=O)[C@H](CCCC[NH3+])n3cc(CCCC)nn3)CC2)n1.[Cl-] | 8.8%
COC(=O)c1cccc(-n2c(=O)n(Cc3ccccc3)c(=O)c3[nH]cnc32)c1C | 17%
Cc1ccc(S(=O)(=O)N2CCN(C(=O)c3cc(=O)c4ccccc4o3)CC2)cc1 | -2.49%
Cc1cccc(/C(N)=N/OC(=O)c2ccc3c(c2)OCO3)c1 | 4.44%
Cc1cc(C)nc(NC(=S)Nc2ccc(Br)cc2Cl)c1 | -20.3%
Oc1cc2c(cc1CN1CCN(c3ccccc3)CC1)OCO2 | 16.4%
Cc1csc(NC(=O)C2CCCN(S(=O)(=O)c3ccc(Br)s3)C2)n1 (centres unmarked) | 12.5%
CC(C)c1ccccc1NC(=O)CN1C(=O)c2ccccc2C1=O | 4.33%
CC(C)(C)NC(=O)c1cccc2c1C(=O)c1ccccc1-2 | 12.7%
CC1CCN(S(=O)(=O)c2cn(CC(=O)Nc3cccc(C#N)c3)cn2)CC1 | 12.7%
COc1ccc(CC(=O)OCC(=O)N(C)C2CCS(=O)(=O)C2)cc1OC (centres unmarked) | 12.3%
CC(=O)N[C@@H](Cc1c[nH]c2ccccc12)C(=O)OCC(=O)Nc1ccc(S(=O)(=O)N(C)C)cc1 | 8.27%
COc1cccc2cc(-c3nnc(SCC(=O)Nc4ccc(NC(C)=O)cc4)n3C)oc12 | 15.4%
NC(=O)CCN(C1CCCCC1)S(=O)(=O)c1cccc2nsnc12 | 11.3%
CC1Cc2ccccc2N1S(=O)(=O)c1cccc(C(=O)NNC(=O)c2ccccc2F)c1 (centres unmarked) | 8.14%
COc1ccc(S(=O)(=O)N2CCN(C)CC2)cc1NC(=O)c1ccccc1 | -5.77%
COc1cc(-c2nnc3sc(Cc4ccc(Cl)cc4)nn23)cc(OC)c1OC | 10.8%
COc1ccc(NC(=O)C2CCC(CNc3c(N4CCCCC4)c(=O)c3=O)CC2)c(OC)c1 (centres unmarked) | 8.82%
COc1ccc(NS(=O)(=O)c2ccc(Oc3cccc(C(=O)O)c3)cc2)cc1 | 15.4%
CC(=O)c1c(C)n([O-])c2ccc(C)cc2[n+]1=O | 5.93%
Cc1cccc(NC(=O)c2cc(N3C(=O)CCC3=O)ccc2Cl)n1 | 6.01%

Structure (SMILES) | hERG current change (%, negative = inhibition) at 1uM
Cc1ccc(/C=C2/Sc3ccc(C(=O)N4CCC5(CC4)OCCO5)cc3NC2=O)cc1 | 11.9%
CCOC(=O)c1c(NC(=O)CSc2nc3ccccc3o2)sc(C(C)=O)c1C | 17.1%
COc1ccc(NC(=O)C2CCOC(C)(C)C2)cc1 (centres unmarked) | 18.2%
Cc1ccc(S(=O)(=O)N(CC(=O)Nc2cccc([N+](=O)[O-])c2)Cc2ccc(Cl)cc2)cc1 | 10.8%
COc1cccc(CNC(=O)Cn2nc([N+](=O)[O-])c(Br)c2C)c1 | 13.9%
CCn1c(C)cc(/C=C2\NC(=O)N(Cc3ccccc3)C2=O)c1C | 10.5%
COC(=O)c1sccc1NC(=S)Nc1ccc(OC)cc1 | 8.21%
COc1ccc(-c2nc3scc(-c4ccc(OC)c(OC)c4)c3c(=O)o2)cc1 | 9.24%
Brc1cnc(N2CCCC2)nc1N1CCCCC1 | 10.1%
CN1C(=O)N(C)C(=O)C2(Sc3ccccc3C2=O)C1=O | 3.6%
Cc1ccc(CCNC(=O)CN(c2ccc(C)cc2)S(=O)(=O)c2c(C)noc2C)cc1 | 8.31%
O=C1CC(c2ccc(F)cc2)C(n2cncn2)C(O)=C1C1NCCc2ccccc21 (centres unmarked) | 9.88%
Cc1ccccc1NC(=O)CSCc1nc(N)nc(Nc2ccccc2C)n1 | 9.06%
CCS(=O)(=O)N1CCC(C(=O)NCCN2CCOCC2)CC1 | 1.79%
C=CCN(C(=O)c1csnn1)C(C(=O)NCc1ccc(F)cc1)c1sccc1C (centres unmarked) | 5.04%
COC(=O)C1=C(C)N(c2cccc(Cl)c2)C(=O)C1 | 6.88%
CC(=O)NC(CC(=O)OCC(=O)N1CCN(S(=O)(=O)c2ccc(C)cc2C)CC1)c1ccccc1 (centres unmarked) | 0.916%
Cc1c(Cc2ccccc2)c(=O)oc2cc(OCC(=O)NCC(O)c3ccccc3)ccc12 (centres unmarked) | 11.8%
CCOC(=O)N1CCN(c2ccc(F)cc2[N+](=O)[O-])CC1 | 1.26%
COC(C[C@@H]1O[C@@H]1[C@H](O)[C@@H](C)OCc1ccccc1)OC | -4.75%
CCOC(=O)c1ccc[n+](C(C)C(=O)c2ccc(-c3ccccc3)cc2)c1.[Br-] (centres unmarked) | -0.939%
CC(=O)Oc1ccc2c(c1)c(C(C)=O)c(C)n2C | 9.13%

Structure (SMILES) | hERG current change (%, negative = inhibition) at 1uM
Cl.c1ccc(N2CCCCC2)c(NC2=NCCC2)c1 | 6.94%
COCCn1c(=O)[nH]c2cc(C(=O)NCCc3ccc(S(N)(=O)=O)cc3)ccc2c1=O | 19.5%
COc1ccccc1Nc1nc(N)nc(CN2CCCCCC2)n1 | -32.2%
Cc1ccc2nc(C(F)(F)F)c(C#N)c(N)c2c1 | 4.3%
CCn1c(SCc2nc(-c3ccc(Cl)cc3)no2)nnc1-c1ccco1 | 0.342%
O=c1c2ccccc2cnn1Cc1nnc(-c2cccs2)o1 | 13.7%
CCCCNCCOCCSc1ccc(Cl)cc1.O=C(O)C(=O)O | 0.752%
Brc1ccccc1-c1nnc(COc2cccc3cccnc23)o1 | 9.91%
COc1ccc(CNC(=O)c2cc3ccccc3oc2=O)cc1 | 7.93%
O=C(NCc1cccnc1)c1cc(Sc2ccc(F)cc2F)nc2ccccc12 | -1.9%
COc1cc(/C=N/Nc2ccc(S(N)(=O)=O)cc2)cc(OC)c1OC | 10.9%
Cc1ccc(-c2cc(C(=O)Nc3ccc(S(=O)(=O)N4CC(C)OC(C)C4)cc3)[nH]n2)c(O)c1 (centres unmarked) | 13.3%
CCOC(=O)C(O)(c1ccc(N)c(OC)c1)C(F)(F)F (centres unmarked) | 8.72%
CN(C(=O)CN1CCC(NC(=O)c2ccccc2Br)CC1)C1CCCCC1 | 11.2%
CC(C)NCC(O)COc1ccc(Br)cc1.Cl (centres unmarked) | -2.04%
CCN(CC)C(=O)c1[nH]cnc1C(=O)N[C@@H](CC(C)C)C(=O)OC(C)(C)C | 16.6%
CN1CC(=O)N2[C@H](c3ccc4c(c3)OCO4)c3[nH]c4ccccc4c3C[C@@H]2C1=O | 6.62%
O=C(Nc1nnc(C2=COCCO2)o1)c1ccc([N+](=O)[O-])s1 | 1.37%
Cc1ccccc1NC(=O)COC(=O)C1C2CC3OC(=O)C1C3C2 (centres unmarked) | 10%
O=C(CCc1ccc(S(=O)(=O)NC2CCCCC2)cc1)NCc1ccccn1 | 20.4%
